Laboratory results: US20230348362A1, “LIPID COMPOUNDS AND LIPID NANOPARTICLE COMPOSITIONS” (Suzhou Abogen Biosciences Co., Ltd., priority 2021, published 2023)
At least one read-out could not be matched to a standard name with certainty. Some compounds share one wording; it may come from a single statement.

test system: human erythropoietin (hEPO) mRNA; assay: Animal study: hEPO mRNA LNP tail vein injection, serum hEPO ELISA; type: in vivo; conditions: female ICR mice, 0.5 mg/kg tail vein injection, blood sampled e.g. 6 hours, relative to MC3 LNP

SMILES | Expression over MC3
CCCCCCCCC(CCCCCCCC)COC(=O)CCCCCN(CCO)CCN(CCCCCC(=O)OCCCCCC)C1CCCCC1 [Compound 101] | B (≥1 and <2)
CCCCCCCCCOC(=O)CCCCCN(CCN(CCO)CCCCCC(=O)OCC(CCCCCCCC)CCCCCCCC)C1CCCCC1 [Compound 102] | B (≥1 and <2)
CCCCCCCCCCCCCCCCOC(=O)CCCCCN(CCN(CCO)CCCCCC(=O)OCC(CCCCCCCC)CCCCCCCC)C1CCCCC1 [Compound 104] | C (≥0.1 and <1)
CCCCCCCCCCCCCCCCCCOC(=O)CCCCCN(CCN(CCO)CCCCCC(=O)OCC(CCCCCCCC)CCCCCCCC)C1CCCCC1 [Compound 105] | C (≥0.1 and <1)
CCCCCCCCCCCOC(=O)CCCCCN(CCN(CCO)CCCCCC(=O)OCC(CCCCCCCC)CCCCCCCC)C1CCC1 [Compound 106] | C (≥0.1 and <1)
CCCCCCCCCCCOC(=O)CCCCCN(CCN(CCO)CCCCCC(=O)OCC(CCCCCCCC)CCCCCCCC)C1CCCCCC1 [Compound 107] | D (<0.1)
CCCCC/C=C\C/C=C\CCCCCCCC(=O)OCCCCCN(CCN(CCO)CCCCCC(=O)OCC(CCCCCCCC)CCCCCCCC)C1CCCCC1 [Compound 108] | C (≥0.1 and <1)
CCCCCCCC/C=C\CCCCCCCC(=O)OCCCCCN(CCN(CCO)CCCCCC(=O)OCC(CCCCCCCC)CCCCCCCC)C1CCCCC1 [Compound 109] | C (≥0.1 and <1)
CCCCCCCCC(CCCCCCCC)COC(=O)CCCCCN(CCN(CCO)CCOCCC(=O)OCC(CCCCCCCC)CCCCCCCC)C1CCC1 [Compound 110] | A (≥2)
CCCCCCCCC(CCCCCCCC)COC(=O)CCCCCN(CCN(CCO)CCOCCC(=O)OCC(CCCCCCCC)CCCCCCCC)C1CCCCC1 [Compound 111] | A (≥2)
CCCCCCCCC(CCCCCCCC)COC(=O)CCOCCN(CCO)CCN(CCOCCC(=O)OCC(CCCCCCCC)CCCCCCCC)C1CCC1 [Compound 112] | A (≥2)
CCCCCCCCC(CCCCCCCC)COC(=O)CCOCCN(CCO)CCN(CCOCCC(=O)OCC(CCCCCCCC)CCCCCCCC)C1CCCCC1 [Compound 113] | A (≥2)
CCCCCCCCCCCOC(=O)CCCCCN(CCN(CCO)CCOCCC(=O)OCC(CCCCCCCC)CCCCCCCC)C1CCC1 [Compound 114] | C (≥0.1 and <1)
CCCCCCCCCCCOC(=O)CCCCCN(CCN(CCO)CCOCCC(=O)OCC(CCCCCCCC)CCCCCCCC)C1CCCCC1 [Compound 115] | C (≥0.1 and <1)
CCCCCCCCCCCOC(=O)CCOCCN(CCN(CCO)CCOCCC(=O)OCC(CCCCCCCC)CCCCCCCC)C1CCC1 [Compound 116] | D (<0.1)
CCCCCCCCCCCOC(=O)CCOCCN(CCN(CCO)CCOCCC(=O)OCC(CCCCCCCC)CCCCCCCC)C1CCCCC1 [Compound 117] | D (<0.1)
CCCCCCCCC(CCCCCCCC)COC(=O)CCCCCN(CCO)CCN(CCCCCC(=O)OCC(CCCCCCCC)CCCCCCCC)CCC(C)C [Compound 118] | B (≥1 and <2)
CCCCCCCCCCCOC(=O)CCCCCN(CC=C(C)C)CCN(CCO)CCCCCC(=O)OCC(CCCCCCCC)CCCCCCCC [Compound 119] | B (≥1 and <2)
CCCCCCCCC(CCCCCCCC)COC(=O)CCOCCN(CC=C(C)C)CCN(CCO)CCOCCC(=O)OCC(CCCCCCCC)CCCCCCCC [Compound 120] | A (≥2)

SMILES | Expression over MC3
CCCCCCCCC(CCCCCCCC)CNC(=O)CCCCCN(CC=C(C)C)CCN(CCO)CCCCCC(=O)OCC(CCCCCCCC)CCCCCCCC [Compound 121] | A (≥2)
CCCCCCCCC(CCCCCCCC)CNC(=O)CCCCCN(CC=C(C)C)CCN(CCO)CCCCCC(=O)NCC(CCCCCCCC)CCCCCCCC [Compound 122] | A (≥2)
CCCCCCCCC(CCCCCCCC)COC(=O)CCCCCN(CCO)CCN(CC=C(C)C)CCOCCC(=O)OCC(CCCCCCCC)CCCCCCCC [Compound 123] | A (≥2)
CCCCCCCCC(CCCCCCCC)COC(=O)CCCCCN(CCO)CCN(CCCCC)CCCCCC(=O)OCC(CCCCCCCC)CCCCCCCC [Compound 124] | B (≥1 and <2)
CCCCCCCCCCCOC(=O)CCCCCN(CC=C(C)C)CCN(CCCCCC(=O)OCC(CCCCCCCC)CCCCCCCC)C1CCC(O)CC1 (centres unmarked) [Compound 125] | C (≥0.1 and <1)
CCCCCCCCC(CCCCCCCC)COC(=O)CCCCCN(CC=C(C)C)CCN(CCCCCC(=O)OCC(CCCCCCCC)CCCCCCCC)C1CCC(O)CC1 (centres unmarked) [Compound 126] | B (≥1 and <2)
CCCCCCCCC(CCCCCCCC)COC(=O)CCCCCN(CCO)CCN(CCCCCOC(=O)N(CCCCCCCC)CCCCCCCC)C1CCCCC1 [Compound 127] | A (≥2)
CCCCCCCCCCCOC(=O)CCCCCN(CCN(CCO)CCCCCOC(=O)OCC(CCCCCCCC)CCCCCCCC)C1CCCCC1 [Compound 128] | D (<0.1)
CCCCCCCCCCCOC(=O)CCCCCN(CCN(CCO)CCCCCC(=O)OCC(CCCCCCCC)CCCCCCCC)C1CC1 [Compound 129] | C (≥0.1 and <1)
CCCCCCCCCCCOC(=O)CCCCCN(CCN(CCO)CCCCCC(=O)OCC(CCCCCCCC)CCCCCCCC)C1CCCC1 [Compound 130] | B (≥1 and <2)
CCCCCCCCCCCCCCCCOC(=O)CCCCCN(CCN(CCO)CCCCCC(=O)OCC(CCCCCCCC)CCCCCCCC)C1CCCCCCC1 [Compound 131] | B (≥1 and <2)
CCCCCCCCC(CCCCCCCC)COC(=O)CCCCCN(CCO)CCN(CCCCCOC(=O)OCC(CCCCCCCC)CCCCCCCC)C1CCCCC1 [Compound 133] | C (≥0.1 and <1)
CCCCCCCCC(CCCCCC)COC(=O)CCCCCN(CCO)CCN(CCCCC(COC(=O)CCCCCCC)COC(=O)CCCCCCC)C1CCC1 (centres unmarked) [Compound 135] | B (≥1 and <2)
CCCCCCCCC(CCCCCC)CNC(=O)CCCCCN(CCO)CCN(CCCCC(COC(=O)CCCCCCC)COC(=O)CCCCCCC)C1CCC1 (centres unmarked) [Compound 136] | A (≥2)
CCCCCCCCC(CCCCCC)COC(=O)CCCCCN(CCO)CCN(CCCCC(COC(=O)CCCCCCC)COC(=O)CCCCCCC)C1CCCC1 (centres unmarked) [Compound 137] | A (≥2)
CCCCCCCCC(CCCCCC)CNC(=O)CCCCCN(CCO)CCN(CCCCC(COC(=O)CCCCCCC)COC(=O)CCCCCCC)C1CCCC1 (centres unmarked) [Compound 138] | B (≥1 and <2)
CCCCCCCCC(CCCCCC)COC(=O)CCCCCN(CCO)CCN(CCCCC(COC(=O)CCCCCCC)COC(=O)CCCCCCC)C1CCCCC1 (centres unmarked) [Compound 139] | B (≥1 and <2)
CCCCCCCCC(CCCCCC)CNC(=O)CCCCCN(CCO)CCN(CCCCC(COC(=O)CCCCCCC)COC(=O)CCCCCCC)C1CCCCC1 (centres unmarked) [Compound 140] | A (≥2)
CCCCCCCC(=O)OCC(CCCCN(CCO)CCN(CCCCC(COC(=O)CCCCCCC)COC(=O)CCCCCCC)C1CCCCC1)COC(=O)CCCCCCC [Compound 141] | B (≥1 and <2)

SMILES | Expression over MC3
CCCCCCCCC(CCCCCC)COC(=O)CCCCCN(CCO)CCN(CCCCC(COC(=O)CCCCCCC)COC(=O)CCCCCCC)C1CCCCCC1 (centres unmarked) [Compound 142] | A (≥2)
CCCCCCCCC(CCCCCC)CNC(=O)CCCCCN(CCO)CCN(CCCCC(COC(=O)CCCCCCC)COC(=O)CCCCCCC)C1CCCCCC1 (centres unmarked) [Compound 143] | A (≥2)
CCCCCCCCC(CCCCCC)COC(=O)CCCCCN(CCO)CCN(CCCCC(COC(=O)CCCCCCC)COC(=O)CCCCCCC)C1CCCCCCC1 (centres unmarked) [Compound 144] | A (≥2)
CCCCCCCCC(CCCCCC)CNC(=O)CCCCCN(CCO)CCN(CCCCC(COC(=O)CCCCCCC)COC(=O)CCCCCCC)C1CCCCCCC1 (centres unmarked) [Compound 145] | A (≥2)
CCCCCCCCC(CCCCCC)CC(=O)OCCCCCN(CCO)CCN(CCCCCN(C)C(=O)CC(CCCCCC)CCCCCCCC)C1CCCCCC1 (centres unmarked) [Compound 147] | A (≥2)
CCCCCCCCC(CCCCCC)COC(=O)CCCCCN(CC=C(C)C)CCN(CCO)CCCCC(COC(=O)CCCCCCC)COC(=O)CCCCCCC (centres unmarked) [Compound 148] | A (≥2)
CCCCCCCCC(CCCCCC)CNC(=O)CCCCCN(CC=C(C)C)CCN(CCO)CCCCC(COC(=O)CCCCCCC)COC(=O)CCCCCCC (centres unmarked) [Compound 149] | A (≥2)
CCCCCCCCC(CCCCCC)CNC(=O)CCCCCN(CC=C(C)C)CCN(CCO)CCCCC1COC(C(CCCCCC)CCCCCCCC)OC1 (centres unmarked) [Compound 150] | B (≥1 and <2)
CCCCCCCCC(CCCCCC)COC(=O)CCCCCN(CC=C(C)C)CCN(CCO)CCCCC1COC(C(CCCCCC)CCCCCCCC)OC1 (centres unmarked) [Compound 151] | B (≥1 and <2)
CCCCCCCC/C=C\CCCCCCCC(=O)OCCCCCN(CCO)CCN(CCCCCNC(=O)CC(CCCCCC)CCCCCCCC)C1CCCCCC1 (centres unmarked) [Compound 152] | A (≥2)
CCCCCCCCC(CCCCCCCC)COC(=O)OCCCCCN(CCO)CCN(CCCCCNC(=O)CC(CCCCCC)CCCCCCCC)C1CCCCCC1 (centres unmarked) [Compound 153] | A (≥2)
CCCCCCCCC(CCCCCC)COC(=O)CCCCCN(CCO)CCN(CCCCC(COC(=O)CCCCCCC)COC(=O)CCCCCCC)C1CC1 (centres unmarked) [Compound 154] | C (≥0.1 and <1)
CCCCCCCCC(CCCCCC)CNC(=O)CCCCCN(CCO)CCN(CCCCC(COC(=O)CCCCCCC)COC(=O)CCCCCCC)C1CC1 (centres unmarked) [Compound 155] | A (≥2)
CCCCCCCCC(CCCCCC)COC(=O)CCCCCN(C)CCN(CCO)CCCCC(COC(=O)CCCCCCC)COC(=O)CCCCCCC (centres unmarked) [Compound 156] | C (≥0.1 and <1)
CCCCCCCCC(CCCCCC)COC(=O)CCCCCN(CC)CCN(CCO)CCCCC(COC(=O)CCCCCCC)COC(=O)CCCCCCC (centres unmarked) [Compound 157] | B (≥1 and <2)
CCCCCCCCC(CCCCCC)CNC(=O)CCCCCN(C)CCN(CCO)CCCCC(COC(=O)CCCCCCC)COC(=O)CCCCCCC (centres unmarked) [Compound 158] | D (<0.1)
CCCCCCCCC(CCCCCC)CNC(=O)CCCCCN(CC)CCN(CCO)CCCCC(COC(=O)CCCCCCC)COC(=O)CCCCCCC (centres unmarked) [Compound 159] | D (<0.1)
CCCCCCCC(=O)OCC(CCCCN(CCO)CCN(CCCCC(COC(=O)CCCCCCC)COC(=O)CCCCCCC)C1CCCCCC1)COC(=O)CCCCCCC [Compound 160] | A (≥2)
